# Reference: the supplement of paper PMC8728848
# The list shows a part of the results.
# Assays:
# Assay in all cases: glycan array binding signal (z-score within array); higher = stronger binding
# Conditions in all cases: glycan notation: IUPAC condensed, linker removed
# Neu5Ac(a2-8)Neu5Ac = target: Neu5Ac(a2-8)Neu5Ac
# Procedure, shortened: (§1)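 Glycan array data came from 3228 arrays in the Consortium for Functional Glycomics database, and only arrays with an available protein sequence were kept. Glycan names were put into IUPAC-condensed notation, and columns mapping to the same glycan were averaged. The binding signal is a within-array Z-score, averaged across arrays of one protein sequence run at different concentrations or buffers and across linkers. A negative Z-score can be read as non-binding.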
# [1] = target: Neu5Ac(a2-8)Neu5Ac(a2-3)Gal(b1-3)GalNAc(b1-4)[Neu5Ac(a2-3)]Gal(b1-4)Glc
# Procedure, shortened: as §1
# [2] = target: Neu5Ac(a2-8)Neu5Ac(a2-3)Gal(b1-3)GalNAc(b1-4)[Neu5Ac(a2-8)Neu5Ac(a2-3)]Gal(b1-4)Glc
# Procedure, shortened: as §1
# [3] = target: Neu5Ac(a2-8)Neu5Ac(a2-3)Gal(b1-4)Glc
# Procedure, shortened: as §1
# [4] = target: Neu5Ac(a2-8)Neu5Ac(a2-3)Gal(b1-4)GlcNAc
# Procedure, shortened: as §1
# [5] = target: Neu5Ac(a2-8)Neu5Ac(a2-3)[Gal(b1-3)GalNAc(b1-4)]Gal(b1-4)Glc
# Procedure, shortened: as §1
# [6] = target: Neu5Ac(a2-8)Neu5Ac(a2-3)[GalNAc(b1-4)]Gal(b1-4)Glc
# Procedure, shortened: as §1
# [7] = target: Neu5Ac(a2-8)Neu5Ac(a2-8)Neu5Ac
# Procedure, shortened: as §1
# [8] = target: Neu5Ac(a2-8)Neu5Ac(a2-8)Neu5Ac(a2-3)Gal(b1-4)Glc
# Procedure, shortened: as §1
# [9] = target: Neu5Ac(a2-8)Neu5Ac(a2-8)Neu5Ac(a2-3)[Gal(b1-3)GalNAc(b1-4)]Gal(b1-4)Glc
# Procedure, shortened: as §1
# [10] = target: Neu5Ac(a2-8)Neu5Ac(a2-8)Neu5Ac(a2-3)[GalNAc(b1-4)]Gal(b1-4)Glc
# Procedure, shortened: as §1
# [11] = target: Neu5Ac(a2-8)Neu5Ac(a2-8)Neu5Ac(a2-8)Neu5Ac(a2-3)[GalNAc(b1-4)]Gal(b1-4)Glc
# Procedure, shortened: as §1
# [12] = target: Neu5Ac(a2-8)Neu5Gc(a2-3)Gal(b1-4)GlcNAc
# Procedure, shortened: as §1
# [13] = target: Neu5Ac(b2-6)Gal(b1-4)GlcNAc
# Procedure, shortened: as §1
# Neu5Ac(b2-6)GalNAc = target: Neu5Ac(b2-6)GalNAc
# Procedure, shortened: as §1
# [14] = target: Neu5Ac9Ac(a2-3)Gal(b1-3)GlcNAc
# Procedure, shortened: as §1
# [15] = target: Neu5Ac9Ac(a2-3)Gal(b1-4)GlcNAc
# Procedure, shortened: as §1
# [16] = target: Neu5Ac9Ac(a2-6)Gal(b1-4)GlcNAc
# Procedure, shortened: as §1
# [17] = target: Neu5Gc(a2-3)Gal(b1-3)GlcNAc
# Procedure, shortened: as §1
# [18] = target: Neu5Gc(a2-3)Gal(b1-3)[Fuc(a1-4)]GlcNAc
# Procedure, shortened: as §1
# Neu5Gc(a2-3)Gal(b1-4)Glc = target: Neu5Gc(a2-3)Gal(b1-4)Glc
# Procedure, shortened: as §1
# [19] = target: Neu5Gc(a2-3)Gal(b1-4)GlcNAc
# Procedure, shortened: as §1
# [20] = target: Neu5Gc(a2-3)Gal(b1-4)GlcNAc(b1-3)Gal(b1-4)GlcNAc(b1-2)Man(a1-3)[Neu5Gc(a2-3)Gal(b1-4)GlcNAc(b1-3)Gal(b1-4)GlcNAc(b1-2)Man(a1-6)]Man(b1-4)GlcNAc(b1-4)GlcNAc
# Procedure, shortened: as §1
# [21] = target: Neu5Gc(a2-3)Gal(b1-4)[Fuc(a1-3)]GlcNAc
# Procedure, shortened: as §1
# [22] = target: Neu5Gc(a2-6)Gal(b1-4)GlcNAc
# Procedure, shortened: as §1
# Neu5Gc(a2-6)GalNAc = target: Neu5Gc(a2-6)GalNAc
# Procedure, shortened: as §1
# [23] = target: Neu5Gc(a2-8)Neu5Ac(a2-3)Gal(b1-4)GlcNAc
# Procedure, shortened: as §1
# [24] = target: Neu5Gc(a2-8)Neu5Gc(a2-3)Gal(b1-4)GlcNAc
# Procedure, shortened: as §1
# [25] = target: Neu5Gc(a2-8)Neu5Gc(a2-3)Gal(b1-4)GlcNAc(b1-3)Gal(b1-4)GlcNAc
# Procedure, shortened: as §1
# [26] = target: Neu5Gc(a2-8)Neu5Gc(a2-6)Gal(b1-4)GlcNAc
# Procedure, shortened: as §1
# [27] = target: Neu5Gc(b2-6)Gal(b1-4)GlcNAc
# Procedure, shortened: as §1
binder,measurement,setting,value
LngA (Escherichia coli) (protein) MLSVYNRTQKFKAEARKKIAKYHELRKQRGMSLLEVIIVLGIIGTIAAGVVILAQRAFDSRAVTDLVTNTNTVRVRMKDAYQRDGKYPDFVDPLSLTANTIKTDTSGIPAAQLVQLGKITPDEVRNNISGDFIAIGGALTSNGAQVKKGFAIELNGLSQEQCRSILGQVGNNWEYVAIGTSASGSYAMTATGVDMSVAASTTVLRSLGNNGQTTLTADKILSTCTAQVNSITLGSR,glycan array binding signal (z-score),Neu5Ac(a2-8)Neu5Ac,0.85
same,glycan array binding signal (z-score),[1],-0.298
same,glycan array binding signal (z-score),[2],-0.457
same,glycan array binding signal (z-score),[3],-0.552
same,glycan array binding signal (z-score),[4],-0.195
same,glycan array binding signal (z-score),[5],-0.312
same,glycan array binding signal (z-score),[6],-0.442
same,glycan array binding signal (z-score),[7],-0.301
same,glycan array binding signal (z-score),[8],0.154
same,glycan array binding signal (z-score),[9],-0.06
same,glycan array binding signal (z-score),[10],-0.455
same,glycan array binding signal (z-score),[11],-0.391
same,glycan array binding signal (z-score),[12],-0.319
same,glycan array binding signal (z-score),[13],-0.5
same,glycan array binding signal (z-score),Neu5Ac(b2-6)GalNAc,-0.582
same,glycan array binding signal (z-score),[14],2.04
same,glycan array binding signal (z-score),[15],-0.433
same,glycan array binding signal (z-score),[16],-0.378
same,glycan array binding signal (z-score),[17],-0.438
same,glycan array binding signal (z-score),[18],-0.476
same,glycan array binding signal (z-score),Neu5Gc(a2-3)Gal(b1-4)Glc,-0.423
same,glycan array binding signal (z-score),[19],-0.48
same,glycan array binding signal (z-score),[20],-0.288
same,glycan array binding signal (z-score),[21],-0.145
same,glycan array binding signal (z-score),[22],-0.433
same,glycan array binding signal (z-score),Neu5Gc(a2-6)GalNAc,-0.32
same,glycan array binding signal (z-score),[23],-0.561
same,glycan array binding signal (z-score),[24],-0.576
same,glycan array binding signal (z-score),[25],-0.545
same,glycan array binding signal (z-score),[26],-0.363
same,glycan array binding signal (z-score),[27],-0.329
